Results published in publication PMC10668032.
Some of the results follow. At the low end of the ranking, values are background and their order means little.

The sequences below were run against SIX1-Q177R homeodomain (UniProt Q15475) (assay: universal protein binding microarray). Details: Universal all-10-mer PBM (8x60K, AMADID 030236), 300 nM GST-tagged protein, Alexa Fluor 488 anti-GST; buffer, salt, pH and temperature not stated; high values mean tight binding; most listed sequences are background and not binding sites; double strand, one strand shown.

Row | Sequence | binding signal [E-score]
1 | ACAATCAA | -0.0826
2 | TCACGGCA | -0.179
3 | AACTGTAC | -0.189
4 | AGGAGTCG | 0.0884
5 | TATCACAA | -0.00421
6 | TACCCCGA | 0.221
7 | CGCTCGCC | -0.0434
8 | ATAACTTC | -0.133
9 | AGCGAACT | -0.038
10 | ATCGACTC | 0.201
11 | AGGTGCGC | -0.0123
12 | AGCCCTCG | -0.22
13 | CCGACTAG | -0.127
14 | CGCATTCA | -0.101
15 | CATCGTAG | 0.0737
16 | AAAAGGTC | -0.164
17 | ACAGGCGG | -0.0143
18 | ACTTTGCA | -0.0264
19 | ATCCAATC | -0.147
20 | CGATGTTC | -0.08
21 | GCAGCTAC | -0.16
22 | ATAGGTTA | 0.0205
23 | ACTCATAG | 0.112
24 | GCACGTAA | -0.000275
25 | ATCTAGAG | -0.139

Row | Sequence | binding signal [E-score]
26 | AACTAAAC | -0.0335
27 | ACCATCTC | 0.111
28 | GAAGATCC | -0.0256
29 | GAGATCGA | -0.0684
30 | GAACCTTA | -0.132
31 | TTAATGAA | -0.0752
32 | CCCAGCGA | 0.0944
33 | ATTCGGTA | 0.0586
34 | CACCACCA | 0.329
35 | GACTTCTC | -0.391
36 | GCGATGCA | -0.223
37 | ATATTGGC | -0.0857
38 | ACGTGCAT | -0.0601
39 | ATCTTTTC | -0.196
40 | CAGAGGTA | -0.0745
41 | AACTCATG | -0.098
42 | GGGGATGA | 0.133
43 | TCGAACCA | -0.0554
44 | ATGCCAAG | 0.162
45 | ACTTCAAT | 0.126
46 | CCGTAGAA | -0.0488
47 | AAGGCGCC | -0.104
48 | CCGCCGGC | 0.0187
49 | CCGCCCAC | 0.0869
50 | AGAGCTTC | -0.131

Row | Sequence | binding signal [E-score]
51 | CGTGATAA | -0.042
52 | ATAAGTGG | -0.0441
53 | AAAGGGAA | -0.134
54 | CACGTTAA | -0.0216
55 | AGCGCATA | -0.0655
56 | CCCGGGTC | 0.335
57 | CGTGCTTC | 0.00285
58 | GGGGCCCA | -0.177
59 | CAAGCTGC | -0.227
60 | TTCAGCAA | -0.0193
61 | GAACCGCA | -0.131
62 | ACAATTCC | -0.12
63 | CCCTCTCC | -0.0473
64 | GCTGTCCC | -0.189
65 | CCCTGACG | 0.152
66 | AGCAGACT | -0.157
67 | CAACGCTA | 0.07
68 | GTACGAAA | -0.076
69 | CGGCATCA | -0.128
70 | GGAACGTA | -0.00415
71 | AGGGGACC | 0.0592
72 | CGTAGAGA | -0.268
73 | GCGCCCTA | -0.0551
74 | GGTTTGGA | 0.0144
75 | CCATAGGG | 0.154

Row | Sequence | binding signal [E-score]
76 | CATTAAGA | -0.181
77 | TAAGCTTA | 0.0641
78 | AGGACGAG | 0.0747
79 | CCGAATTA | 0.0295
80 | CCTATAGC | -0.0348
81 | AATGATCG | -0.189
82 | AACCCCCC | 0.308
83 | GCGAGGAC | -0.0768
84 | CCTCGCTA | -0.0181
85 | AATATATC | -0.105
86 | CAAACGGG | 0.0374
87 | AATTTTTC | -0.0225
88 | GGAGCCGA | 0.00907
89 | AATGGTAG | -0.0146
90 | ACACGTGA | 0.34
91 | AAATGAGG | -0.228
92 | ACGTTGGA | -0.0118
93 | CGTCGACG | -0.202
94 | ACGCTCCA | -0.0758
95 | TAAGAGCA | 0.0883
96 | CTACGTAG | -0.195
97 | ACGTGGAA | -0.0611
98 | GATGAGAA | -0.182
99 | CAGCTTGA | -0.0231
100 | GCTGCTTA | -0.0529

Row | Sequence | binding signal [E-score]
101 | CGTCAAAC | 0.0535
102 | TCACCGAA | 0.125
103 | AGGGTGAC | 0.035
104 | ACACGTCG | 0.323
105 | CTCATTCA | -0.144
106 | AGATGTAA | -0.147
107 | ATGGCGGG | 0.118
108 | CCAACCTC | -0.029
109 | GCTTGCGA | -0.15
110 | GCGGCAGC | -0.284
111 | AATGGCGG | -0.083
112 | CAAGACGC | -0.0252
113 | ACAGATAA | -0.039
114 | GAGCCCAA | -0.283
115 | AGTCCGCG | -0.145
116 | GGTGGCAA | -0.151
117 | GGATATGA | 0.0813
118 | CAAACGCA | -0.0779
119 | AAACGGGT | 0.136
120 | AGTGATAA | -0.236
121 | CCGCACTA | 0.13
122 | ACCTTTGC | 0.043
123 | CTCCTCAG | -0.012
124 | AGAATGTA | -0.16
125 | CACGTCAC | 0.16

Row | Sequence | binding signal [E-score]
126 | AGGGTTTC | 0.0175
127 | GAGAAGGA | -0.168
128 | ATGGTCTG | -0.132
129 | AAACCATT | -0.178
130 | GCAGGCGA | -0.265
131 | ATACACGA | 0.38
132 | GCAGGACA | 0.00732
133 | GTAGAGCA | 0.124
134 | ATAGGCAA | -0.228
135 | GCCCCGGA | 0.00914
136 | AGCTGGGG | 0.118
137 | TAGCCGAA | -0.0879
138 | ATAGTTGA | -0.181
139 | AGTTGGAA | -0.167
140 | ATGGACCC | 0.144
141 | AAGAGTCA | 0.123
142 | CCACCAGG | 0.0469
143 | CTGGGTAA | -0.0232
144 | ATCCGCTA | -0.104
145 | ATAAACTA | -0.049
146 | ATATCTCC | 0.00536
147 | GTGATCTA | -0.0668
148 | ACAAGGAT | 0.0765
149 | GGTGTCAA | 0.49
150 | CGGTCTTC | -0.168

Row | Sequence | binding signal [E-score]
151 | GTACTCAA | -0.0267
152 | TGAACTCA | -0.11
153 | GTAATTGA | 0.0743
154 | GCATAACA | 0.162
155 | AGGCGTAC | 0.221
156 | ACCTTATG | 0.134
157 | ACCGCAAC | 0.1
158 | CAGCCTGA | -0.0835
159 | ACCAGGGC | 0.0523
160 | CGTTAGAC | -0.0103
161 | AATTCTGG | -0.117
162 | GCAATAGC | 0.0186
163 | AAAGCATT | -0.0558
164 | CTCTGATA | -0.0281
165 | ATAGTAAG | -0.0952
166 | CACTCTGG | 0.187
167 | AGGCGTTA | -0.00583
168 | CACTTTAA | 0.0809
169 | TCGTGAGA | -0.136
170 | ACATGCGT | -0.23
171 | GCATGACA | 0.115
172 | CTCGTGGC | -0.234
